# Measurements from PubChem BioAssay AID1346428 (National Center for Advancing Translational Sciences (NCATS), 2018).
# “And” between values parts separate entries of the source, which are not always exact repeats. Identical values can stand only once. About 1,200 (2.5%) of roughly 48,000 compounds were called active. Roughly 2% stayed inconclusive and do not appear here.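 Rule for the calls: active = activation of at least 60% and not above a set upper limit (about 1 call in 100 departs from these limits); inconclusive = activation of 40% to 60%, or above that upper limit; inactive = activation under 40%.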 The list shows a part of the results.
# Molecular target: Probable G-protein coupled receptor 32 (Homo sapiens) (UniProt O75388)
# Assay: qHTS for Agonists of Human Resolvin D1 Receptor DRV1; note: 0% is about no effect
# Settings: CHO-K1 GPR32 beta-arrestin PathHunter luminescence, 90 min; at 76.9 µM; stronger effect = higher value; zero percent set by DMSO-only wells
# In short: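 Agonism was scored by beta-Gal fragment complementation (chemiluminescent read, 1 h detection at ambient temperature) reporting beta-arrestin binding to GPR32 in engineered CHO-K1 cells. Compound treatment lasted 90 min at 37 C, normalized to a DMSO basal control.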
# Chain of UniProt O75388 (O75388 whole entry, looked up): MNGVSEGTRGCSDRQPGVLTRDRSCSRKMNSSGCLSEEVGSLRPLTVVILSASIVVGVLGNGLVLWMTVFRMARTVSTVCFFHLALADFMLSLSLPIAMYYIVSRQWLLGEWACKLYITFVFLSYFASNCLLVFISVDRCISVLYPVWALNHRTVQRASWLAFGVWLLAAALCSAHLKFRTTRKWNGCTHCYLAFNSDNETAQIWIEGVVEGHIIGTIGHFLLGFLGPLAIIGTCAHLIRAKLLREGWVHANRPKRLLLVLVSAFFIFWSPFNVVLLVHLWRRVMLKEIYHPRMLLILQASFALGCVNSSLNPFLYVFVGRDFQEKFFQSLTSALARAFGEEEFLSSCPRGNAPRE
row,Compound,activation
1,CCC(C(=O)N1CCN(c2ccccc2)CC1)n1nc(C)n2c(cc3sccc32)c1=O (centres undefined),inactive: -2.4%
2,O=C(COc1ccccc1F)OCc1cc(=O)n2nc(-c3cccs3)sc2n1,inactive: 9.2%
3,Cn1c(=O)c2c(SCC(=O)N3CCc4ccccc43)nc(-c3ccccc3Cl)nc2n(C)c1=O,inactive: -28.4%
4,Cc1nc(-c2ccccc2)sc1-c1ccc(SCC(=O)NCc2ccc(F)cc2)nn1,inactive: -2.77%
5,CCC(CC)C(=O)NC1CC(=O)N(c2ccc3c(c2)OCCO3)C1 (centres undefined),inactive: -0.134%
6,CC1=Nc2cc(C(=O)NCCc3ccc(Cl)cc3)ccc2Sc2ccc(C)cc21,inactive: -23.7%
7,Cc1ccc(-c2nc3cccnc3s2)cc1NC(=O)C(C)C,inactive: -3.3%
8,Cc1ccc(-c2ccc(=O)n(Cc3cc(C)ccc3C)n2)cc1,inactive: 11.5%
9,COC(=O)C(Cc1c[nH]c2ccccc12)NC(=O)COc1ccc(Cl)cc1Cl (centres undefined),inactive: -2.55%
10,CCOc1ccc(-n2c(SCC(=O)N3CCCC3)nc3c([nH]c4ccccc43)c2=O)cc1,active: 77.3%
11,CCOc1ccc(-n2c(CCC(=O)O)ccc2-c2ccc(Br)cc2)cc1,inactive: -1.6%
12,CCN(c1cc(C)cc(C)c1)S(=O)(=O)c1nnc(NC(=O)c2cccs2)s1,inactive: 33.7%
13,CCc1ccc(CNC(=O)CCSCc2ccccc2F)cc1,inactive: -17.2%
14,Cc1cccc(NS(=O)(=O)c2ccc3[nH]c(=O)ccc3c2)c1C,inactive: -18.6%
15,COc1cc(NC(=O)Cn2c(=O)oc3cc(S(=O)(=O)N4CCCCCC4)ccc32)cc(OC)c1,inactive: 0.553%
16,COc1ccc(C(=O)c2cn(CC(=O)Nc3ccc4c(c3)OCCO4)c3ccc(OC)cc3c2=O)cc1,inactive: 4.83%
17,Cc1oc2ccc(O)c(CN(C)Cc3ccccc3)c2c1C(=O)Nc1cccc(C(F)(F)F)c1,inactive: 17.6%
18,COc1ccccc1OCCn1c(-c2ccc(Cl)cc2)nc2ccccc2c1=O,inactive: 10%
19,O=C(Cn1c(=O)nc(-c2ccccc2)c2ccccc21)Nc1ccc(Cl)c(C(F)(F)F)c1,inactive: -2.91%
20,CCN(C(=O)Cc1nc(-c2ccc(OC)cc2)no1)c1cccc(Cl)c1,inactive: -22.3%
21,O=C(CSc1nc(-c2ccccc2)no1)N1CCN(c2ccccc2F)CC1,inactive: 1.39%

row,Compound,activation
1,COc1cccc(C2=CC(c3ccc(OC)c(OC)c3OC)n3ncnc3N2)c1 (centres undefined),inactive: 4.26%
2,Cc1cc(C)cc(-n2nnc(-c3nc(-c4ccc5c(c4)OCO5)no3)c2C)c1,inactive: -4.44%
3,Nc1ccc2c(c1)CN1C(=O)c3ccccc3C1=N2,inactive: 13.6%
4,Cc1ccc(C(=O)NCCn2c(C)cc3ccccc32)cc1C,inactive: 6.48%
5,CCC(=O)N1c2ccc(S(=O)(=O)N3CCN(c4ccccc4)CC3)cc2CC1C (centres undefined),inactive: 17.6%
6,CC(=O)c1ccc(NC(=O)c2cn3c4c(ccc(Cl)c4c2=O)OC(C)C3)cc1 (centres undefined),inactive: 14.1%
7,COc1cc2c(=O)n(CCC(=O)NCC3CCCO3)c(=O)n(CC(=O)Nc3ccc(C)cc3)c2cc1OC (centres undefined),inactive: 0.883%
8,Cc1ccc(S(=O)(=O)C(CNC(=O)C(=O)NCc2ccc(Cl)cc2)c2cccs2)cc1 (centres undefined),inactive: -10.1%
9,Cc1c(NC(=O)c2ccc(OC(C)C)cc2)cccc1-c1nc2ncccc2o1,active: 88.9%
10,Cc1ccc(S(=O)(=O)c2cn(CC(=O)Nc3ccc(C)c(Cl)c3)c3ccc(C)cc3c2=O)cc1,inactive: -12%
11,CC(Oc1ccc(F)cc1)C(=O)NCC1(N(C)C)CCCCC1 (centres undefined),inactive: -3.08%
12,Cc1ccc(CNC(=O)C2CCCN(S(=O)(=O)c3ccc4c(c3)oc(=O)n4C)C2)cc1 (centres undefined),inactive: -4.57%
13,O=C1CN(C(=O)c2ccc(S(=O)(=O)N3CCCCC3)cc2)C(c2ccc(F)cc2)c2cc(F)ccc2N1 (centres undefined),inactive: -17.9%
14,COc1cccc(C(=O)NCCSc2c(-c3ccc(F)cc3)[nH]c3ccccc23)c1OC,inactive: -12%
15,CC(C)Oc1ccc(CNC(=O)CCCn2c(=O)c3cccn3c3ccccc32)cc1,inactive: -21.2%
16,CCCS(=O)(=O)Nc1cc(-c2cn3cccc(C)c3n2)ccc1C,inactive: -1.65%
17,COc1ccc(-c2cn3nc(N4CCC(C(=O)NCc5ccccc5F)CC4)sc3n2)cc1,inactive: -2.18%
18,Cc1ccc(NCc2cccn2-c2nnc(N3CCC(C(=O)NC(C)C)CC3)s2)cc1,inactive: -22.3%
19,Cc1ccc(S(=O)(=O)N2CCCc3cc(NS(=O)(=O)c4ccc(F)c(C)c4)ccc32)cc1,inactive: -11.4%
20,COc1ccc(-c2cc(C(F)(F)F)c(C#N)c(SCC(=O)Nc3ccc(F)cc3)n2)cc1,inactive: -3.11%
21,CCOC(=O)c1c(NC(=O)CS(=O)(=O)c2ccc(C)cc2)sc2c1CCCCC2,inactive: -31.2%

row,Compound,activation
1,COc1ccc(NC(=O)Cn2c(=O)oc3cc(S(=O)(=O)NC4CCCC4)ccc32)cc1OC,inactive: -3.41%
2,CCCNC(=O)c1ccc2c(c1)ncn2-c1ccc(C)cc1C,inactive: -3.93%
3,COc1ccc(CNc2ncnc3onc(C)c23)cc1,inactive: 26.7%
4,COP(=O)(OC)OC(c1ccc(Cl)cc1)P(=O)(OC)OC (centres undefined),inactive: -12.5%
5,CN(C)CCNC(=O)c1ccc(-n2c(-c3ccccc3)cc3c2CCCC3)cc1,inactive: -20%
6,CCc1ccc(CNC(=O)c2ccc3c(c2)N=C(C)c2cc(C)ccc2S3)cc1,inactive: -6.12%
7,CCCC(O)C(CC)CO (centres undefined),inactive: -2.84%
8,CC(CN(C)C)CN1c2ccccc2CCc2ccccc21 (centres undefined),inactive: 0.929% and inactive: -10%
9,CC(C)C(=O)c1c(C(C)C)nn2ccccc12,inactive: -13.4% and inactive: 8.43%
10,COc1ccc(Nc2ncc3c(n2)CCN(Cc2cc(Br)cs2)C3)c(OC)c1,inactive: 17.7%
11,O=C(O)CSc1c2c(nc3cc(C(=O)Nc4ccc(F)c(Cl)c4)ccc13)CCC2,inactive: -8.69%
12,CCCCOc1ccccc1C(=O)N(Cc1ccc(C)o1)C1CCS(=O)(=O)C1 (centres undefined),inactive: -3.62%
13,Cc1ccc(NC(=O)CSc2nc3c(oc4ccccc43)c(=O)n2-c2ccc(F)cc2)c(C)c1,inactive: 4.24%
14,CCOC(=O)c1ccc(N2CCN(c3cc(C)ccc3C)CC2)c(NC(=O)Nc2ccccc2)c1,inactive: -21.7%
15,COc1ccccc1NC(=O)c1cc2c(=O)oc3ccc(C)cc3c2s1,inactive: 5.69%
16,Cc1cccn2c(=O)c3cc(C#N)c(=O)n(-c4nnc(SCc5ccccc5F)s4)c3nc12,inactive: 0.49%
17,C=Cc1ccc(Cn2nc(-c3ccc(C)c(S(=O)(=O)N(CC)CC)c3)ccc2=O)cc1,inactive: -15.7%
18,COc1ccc2cc(-c3nc4ccc(C(=O)O)cc4[nH]3)c(=O)oc2c1,inactive: 20%
19,COCCCNC(=O)CCCCn1c(=O)c2ccccc2n(CC(=O)Nc2ccc(C)cc2C)c1=O,inactive: -3.61%
20,Cn1nc(-c2ccc(C(=O)Nc3ccc(F)cc3)cc2)c2ccccc2c1=O,active: 105%
21,CCOc1ccccc1NC(=O)Cn1nnc2sc(-c3ccccc3)cc2c1=O,inactive: -2.92%

row,Compound,activation
1,COCCNC(=O)CSc1nc2cc3c(cc2c(=O)n1CCCCCC(=O)NCc1ccc(OC)cc1)OCO3,inactive: -1.75%
2,COc1ccc(CNC(=O)c2ccc3c(c2)nc2n3CCC(C)C2)c(OC)c1 (centres undefined),inactive: -13%
3,CC(C)c1ccc(S(=O)(=O)NCc2ccc3c(c2)CCN3C(=O)c2ccccc2)cc1,inactive: -17.6%
4,COc1ccc(Br)cc1C(=O)Nc1nc2ccc(F)cc2s1,inactive: -6.16%
5,CCOc1ccccc1NC(=O)c1c(NC(=O)c2cccc(C)c2)sc2c1CCCC2,inactive: -2.85%
6,CCc1ccccc1NC(=O)Nc1cc(C(=O)NCc2ccc(C)cc2)ccc1N1CCCC1,inactive: -7.08%
7,CC(C(=O)NCc1ccccc1F)n1ccc2cc(S(=O)(=O)N3CCCC3)ccc21 (centres undefined),inactive: -14.6%
8,O=C(Nc1ccc(C(F)(F)F)cc1)C1CCCN(c2cnccn2)C1 (centres undefined),inactive: 5.36%
9,O=C(Nc1ccccc1Cl)N1CCC(CN2CCCCC2)CC1,inactive: -4.57%
10,CC1CN(C(=O)Nc2ccc(C(=O)NCc3cccc(F)c3)cc2)c2ccccc2S1 (centres undefined),inactive: -28.6%
11,C[C@H]1[C@H]2CC[C@H]3[C@@H]4CC=C5C[C@@H](N(C)C)CC[C@]5(C)[C@H]4CC[C@]23CN1C,inactive: 5.2%
12,O=c1c(S(=O)(=O)c2ccccc2)cn(Cc2ccccc2)c2cc(N3CCOCC3)c(F)cc12,inactive: -24.1%
13,Cc1cccc(C)c1Nc1sc(C(=O)c2ccccc2)c(N)c1C(=O)Nc1ccc(F)cc1,inactive: -122%
14,CCc1cccc(NC(=O)Cn2nc(-c3ccc(OC)cc3)ccc2=O)c1,inactive: -2.16%
15,CCOc1ccccc1NC(=O)Cn1c(=O)n(Cc2ccccc2)c(=O)c2c(C)c(C)sc21,inactive: 11.7%
16,CCOC(=O)c1ccc(N2C(=O)c3n[nH]c(-c4cccs4)c3C2c2ccc(C(C)(C)C)cc2)cc1 (centres undefined),inactive: -4.49%
17,O=C(Nc1nc2n(n1)C(c1ccccc1)C=C(c1ccccc1)N2)c1ccc(Cl)c([N+](=O)[O-])c1 (centres undefined),inactive: -36.9%
18,CCC(C)NC(=O)Cn1ncc2c([nH]c3ccc(C)cc32)c1=O (centres undefined),inactive: -11.3%
19,COc1cccc(-c2ccc3c(N)c(C(=O)c4ccc(Cl)cc4)sc3n2)c1,inactive: -19.8%
20,CCOC(=O)c1[nH]c(C)c(CCC(=O)NCc2ccc(OCC)cc2)c1C,inactive: -12.2%
21,Cc1ccc(NC(=O)c2c(C)oc3ccc(O)c(CN4CCCCCC4)c23)c(C)c1,inactive: -22.9%
